Laboratory results as given in patent publication US20240247076A1 (SUZHOU ALPHAMAB, published 2024).

T1: mApple-chis (mouse, UniProt Q91Y47 19-389)
T1 construct: range 1-389; also called mapple-chis-biotin
T1 sequence (looked up): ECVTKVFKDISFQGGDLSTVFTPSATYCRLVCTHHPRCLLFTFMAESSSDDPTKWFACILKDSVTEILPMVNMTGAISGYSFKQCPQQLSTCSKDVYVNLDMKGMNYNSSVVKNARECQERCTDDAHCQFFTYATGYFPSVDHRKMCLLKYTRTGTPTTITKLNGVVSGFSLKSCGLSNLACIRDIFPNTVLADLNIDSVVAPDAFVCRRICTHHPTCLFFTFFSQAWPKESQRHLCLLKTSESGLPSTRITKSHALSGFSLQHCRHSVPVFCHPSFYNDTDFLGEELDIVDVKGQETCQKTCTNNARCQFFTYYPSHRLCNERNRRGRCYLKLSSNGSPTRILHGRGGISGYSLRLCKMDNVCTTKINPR

B1: iFE96-Fc (Fc fusion)
chain: QVQLQESGGGSVQAGGSLRLSCAASGFTASSNFMGWFRQAPGKEREGVAAIYTGGASTFYADSVKGRFTISQDNAKNTVYLEMDTLKPEDTAMYYCAAAPRWIAPLRADRYEYWGQGTQVTVSS[sequence of human IgG1 Fc omitted]
notes: VHH fused to human IgG1-Fc, made in HEK293
B2: iFE166-Fc (Fc fusion)
chain: QVQLQESGGGSVQAGGSLRLSCVASGFTGCRNIMSWYRQAPGKDREFVSAIDSDGVDYADSVKGRFSISQHNDKKTMYLQMTSLKLEDTAMYYCRRVDFGTTSQCRGNYWGQGTQVTVSS[sequence of human IgG1 Fc omitted]
notes: as for B1
B3: iFE168-Fc (Fc fusion)
chain: QVQLQESGGGSVQAGGSLRLSCAASGYTFSNNFVGWFRQAPGKKREGVATIYTLGSSTYYADSVKGRFTISQDNAKNTLYLEMNSLKPEDTAMYYCAAARGWVSPLDPARFVYWGQGTQVTVSS[sequence of human IgG1 Fc omitted]
notes: as for B1
B4: huFE35huv1-Ld-Fc (Fc fusion)
chain: QVQLVESGGGSVQAGGSLRLSCTASGFTFDDSDMGWYRQAPGNECELVSTISSDGRGFYADSVKGRFTISQDNSKNTVYLQMNSLRAEDTAVYYCAAGWYGSFCSGLGQGTLVTVSS[sequence of human IgG1 Fc omitted]
notes: Humanized VHH fused to human IgG1 Fc; 'Ld' not explained; also called huFE35huvl-Ld-Fc
B5: huFE13huv1-Ld-Fc (Fc fusion)
chain: QVQLVESGGGSVQAGGSLRLSCAASGYTYSMGAMAWFRQAPGKEREGVALIATSSGFISYTDSVKGRFTISQDNSKNTVYLQMNSLRAEDTAVYYCAAGTQFSWSPGSYNYWGQGTLVTVSS[sequence of human IgG1 Fc omitted]
notes: Humanized VHH fused to human IgG1 Fc; 'Ld' not explained; also called huFE13huvl-Ld-Fc
B6: huFE56huv1-Ld-Fc (Fc fusion)
chain: QVQLVESGGGSVQAGGSLRLSCAASGHTYSSNYCMAWFRQAPGKEREGVAAIYSDGSTSYADSVKGRFTISKDNSKNTLYLQMNSLRAEDTAVYYCAATAYEGSWTGKQPLCLLYEYTYWGQGTLVTVSS[sequence of human IgG1 Fc omitted]
notes: Humanized VHH fused to human IgG1 Fc; 'Ld' not explained; also called huFE56huvl-Ld-Fc
B7: huFE97huv1-Ld-Fc (Fc fusion)
chain: QVQLVESGGGSVQAGGSLRLSCTASEFTFDDSDMAWYRQAPGNECELVSTITSDGGTYYADSVKGRFTISQDNSKNTMYLQMNSLRAEDTAVYYCAADQWGSAEGDCTSSYPGGYWGQGTLVTVSS[sequence of human IgG1 Fc omitted]
notes: Humanized VHH fused to human IgG1 Fc; 'Ld' not explained; also called huFE97huvl-Ld-Fc
B8: iFE97-Fc (Fc fusion)
chain: QVQLQESGGGSVQAGGSLRLSCTASEFTFDDSDMAWYRQAPGNECELVSTITSDGGTYYADSVKGRFTISQDNAKNTMYLQMNNLKPEDTAVYYCAADQWGSAEGDCTSSYPGGYWGQGTQVTVSS[sequence of human IgG1 Fc omitted]
notes: VHH fused to human IgG1-Fc, made in HEK293; also called IFE97-Ld-Fc
B9: iFE148-Fc (Fc fusion)
chain: QVQLQESGGGSVQAGGSLRLSCVASGYTFNNNFVGWFRQAPGKEREGVAAIYSLGGSTYYADSVKGRFTISQDNAKNTVYLQMDSLKPEDTATYYCAGAITWVPPLSHRRYTYWGQGTQVTVSS[sequence of human IgG1 Fc omitted]
notes: VHH fused to human IgG1-Fc, made in HEK293; also called IFE148-Ld-Fc
B10: huFE148huv1-Ld-Fc (Fc fusion)
chain: QVQLVESGGGSVQAGGSLRLSCAASGYTFNNNFVGWFRQAPGKEREGVAAIYSLGGSTYYADSVKGRFTISQDNSKNTVYLQMNSLRAEDTAVYYCAGAITWVPPLSHRRYTYWGQGTLVTVSS[sequence of human IgG1 Fc omitted]
notes: Humanized VHH fused to human IgG1 Fc; 'Ld' not explained; also called huFE148huvl-Ld-Fc
B11: iFE29m-Fc (Fc fusion)
chain: QVQLQESGGGLVQPGGSLRLSCVASGLTFSLYDMSWVRQAPGKGLEGVSGISGESGGSTYYADSVKGRFTISRDNAKNTLYLQMNSLKTEDTAVYYCATGDRGTWYREDDWGQGTQVTVSS[sequence of human IgG1 Fc omitted]
notes: as for B1
B12: iFE163-Fc (Fc fusion)
chain: QVQLQESGGDSVQAGGSLRLSCIASGFTFDDSDMGWYRQAPGHQCEFVSHITNDGTTYYADSVKGRFTISRDNAKNTVYLQMNSLKPEDAAVYYCAADAWGGGRSTCVNPIGYWGQGTQVTVSS[sequence of human IgG1 Fc omitted]
notes: VHH fused to human IgG1-Fc, made in HEK293; also called IFE163-Ld-Fc

Key:
[1] = biological target: T2, human FXI in plasma (human, UniProt P03951); experiment: cell-based or functional assay
[2] = biological target: T1, mApple-chis; experiment: ELISA, Fc fusion on coated antigen
[3] = biological target: T3, hApple-chis (human, UniProt P03951 fragment); experiment: ELISA, Fc fusion on coated antigen
T3 construct: range 1-387; also called happle-chis-biotin

[4] = biological target: T2, human FXI in plasma; experiment: cell-based or functional assay; remark: listed apart in the source
[5] = biological target: T3, hApple-chis; experiment: BLI, antibody captured on sensor, antigen in solution
[6] = biological target: activated human factor 11 protein (hFXIa) (human, UniProt P03951); experiment: as above
[7] = biological target: T4, recombinant human factor XI (hFXI) (human, UniProt P03951); experiment: as above
T4 construct: also called hFXI-Chis; hFXI-CHis

[8] = biological target: T5, RabFXI-Apple-CHis protein (New Zealand rabbit); experiment: as above
T5 construct: also called FXI proteins of New Zealand rabbits

[9] = biological target: T1, mApple-chis; experiment: BLI, antibody on protein A sensor, antigen in solution

Binder | Activity (FXI), APTT, 1 µg/mL antibody [1] [%] | Coagulation time (s), APTT, 1 µg/mL antibody [1] [s] | EC50 [2] [µg/mL] | EC50 [3] [µg/mL] | activity of FXI factor in human plasma at 0.1 µg/mL [4] [%] | activity of FXI factor in human plasma at 0.5 µg/mL [4] [%] | activity of FXI factor in human plasma at 1 µg/mL [4] [%] | activity of FXI factor in human plasma at 5 µg/mL [4] [%] | activity of FXI factor in human plasma at 10 µg/mL [4] [%] | Kd [5] [nM] | Kd [6] [nM] | Kd [7] [nM] | Kd [8] [nM] | Kd [9] [nM]
B1 | 79 | 62.5 | 0.0331 | 0.0276 |  |  |  |  |  |  |  |  |  | 
B2 | 82.5 | 61.9 | 0.0474 | 0.0448 |  |  |  |  |  |  |  |  |  | 
B3 | 83.7 | 61.7 | 0.0315 | 0.0258 |  |  |  |  |  |  |  |  |  | 
B4 |  |  |  |  | 81.8 | 58.4 | 33 | 1.9 | 1.9 | < 0.001 | 45.5 |  |  | 
B5 |  |  |  |  | 80 | 61.1 | 29.8 | 13.1 | 11.2 | 0.764 | 6.93 | 8.84 | 29.5 | 
B6 |  |  |  |  | 87 | 61.7 | 33.4 | 1.7 | 1.5 | < 0.001 | 28.8 | 3.97 |  | 
B7 |  |  |  |  | 85.2 | 60.9 | 22.6 | 1.6 | 1.5 | < 0.001 | 1.42 | 2.67 | 0.878 | 
B8 |  |  | 0.0444 |  |  |  |  |  |  |  |  |  |  | < 0.001
B9 |  |  | 0.0339 |  |  |  |  |  |  |  |  |  |  | 0.0314
B10 |  |  |  |  | 84.9 | 69.8 | 48.3 | 30.9 | 22.2 | 0.37 | 5.05 | 2.64 | 7.83 | 
B11 | 80.7 | 62.2 |  | 0.058 |  |  |  |  |  |  |  |  |  | 
B12 |  |  | 0.0554 |  |  |  |  |  |  |  |  |  |  | 
